Laboratory results as given in PubChem BioAssay AID720542 (National Center for Advancing Translational Sciences (NCATS), 2013).
About 740 (0.21%) of roughly 360,000 compounds were called active. Inconclusive results, whose numbers are uncertain, are shown with a selection of clear calls. Calls come from the whole dose curve; as a rule, active = well fitted inhibition curve with a large enough effect; inconclusive = small, poorly fitted or top-dose-only effect; inactive = no such curve, though single readings can be large or run the other way. Potencies of inconclusive entries are left out as doubtful fits.

The compounds below were run on Plasmodium falciparum AMA1 (3D7) - RON2 peptide interaction (assay: qHTS for Inhibitors of AMA1-RON; Towards Development of Antimalarial Drug Lead: Primary Screen). Settings: AlphaScreen AMA1-biotinylated RON2 peptide binding; activity change, negative = inhibition: at 58.2 µM (top of the series) unless noted.
Text: Plasmodium, the causative agent of malaria, is one of the world's deadliest parasitic diseases. Currently there is no vaccine available and there is widespread resistance to common anti-malarial drugs. This warrants novel, alternative approaches for developing improved therapy. During infection, one such essential interaction is between two parasite proteins, the apical membrane antigen1 (AMA1) that is translocated onto the merozoite surface and the rhoptry neck protein 2 (RON2), which is transferred to the red blood cells (RBC) membrane during invasion (Besteiro et.al., 2009). Recently, the Miller lab has shown that the interaction between AMA1 and RON2 is essential for junction formation of the parasite with the host cell (Srinivasan et.al., 2011). The binding of the RON2 peptide to the hydrophobic pocket in AMA triggers the formation of the moving junction which provides a firm anchor for the parasite to pull itself into the RBC using its actin-myosin motor; an irreversible step that commits the parasite for invasion. Only one AMA1 and RON2 genes exists in Plasmodium and there are no alternate pathways. Moreover, the region corresponding to RON2 peptide is conserved in all P. falciparum isolates for which sequences are available. The key residues in the AMA1 hydrophobic pocket that binds RON2 are also conserved and indicate a functional constraint governing this essential step in invasion since a short RON2 peptide (RON2L) corresponding to the binding region on AMA1 is sufficient to compete with the native RON2 protein and inhibits invasion (Tonkin et.al, 2011). Therefore, developing small molecule inhibitors of this interaction offers a promising target opening a new arena for anti-malarial therapeutics drug design.
In collaboration with the Miller lab, a quantitative High Throughput Screen using the AlphScreen technology was developed using a recombinant his-tagged AMA1 and a biotinylated RON2 peptide. This fluorescent screen was assayed against the NIH Molecular Libraries Small Molecule Repository (MLSMR). Inhibition of this protein-protein interaction is the desired outcome of this assay. However, due the limitations of this AlphaScreen assay, a large number of artifacts were observed. An AlphaScreen counterscreen was run to identify the true inhibitors, triage compound activity, and weed out false positives.
NIH Chemical Genomics Center [NCGC]
NIH Molecular Libraries Probe Centers Network [MLPCN]
Assay Submitter (PI): Louis Miller, National Institute of Allergy and Infectious Disease (NIAID)
Two microliters of his-tagged AMA1 3D7 allele protein (final concentration 25 nM) was dispensed into a 1,536-well assay plate. Small molecules and positive control peptides were pin-transferred (23 nL or 46 nL) via Kalypsys pin-tool equipped with a 1,536-pin array, resulting in final compound and peptide concentration ranges of 91.5 nM - 57.2 µM, and 15.6 nM - 2.00 µM, respectively. Unlabeled RON2 peptide or R1 peptide ([…]) that specifically binds the 3D7 AMA1 was used as a positive control that inhibited the binding of RON2L to AMA1. After 15 minutes incubation, 1 uL of biotinylated RON2 peptide (final concentration 25 nM) or buffer were dispensed and the assay plate was incubated for an additional 30 minutes at room temperature and protected from light. This was followed by an addition of 1 uL mixture of donor and acceptor beads (10 ug/mL final concentrations for each). The plates were incubated for 30 min at room temperature and read using the EnVision(R) plate reader (PerkinElmer). Maximum inhibition response was normalized to the positive control signal while no inhibition response was normalized to the DMSO treated wells.
Note: nearly all actives have a fitted effect of over 45% in size.
Potency is the fitted concentration of half-maximal effect; tags give direction and shape of the fitted curve.
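Throughout, for activity change, negative = inhibition: 0% = vehicle wells and -100% = peptide control.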

Row | Structure (SMILES) | activity change, negative = inhibition | Potency
1 | O=c1[nH]c(N2CCN(Cc3ccccc3)CC2)nc2c1CCC2 | inactive: -23.5% | –
2 | O=C(/C=C/c1cccc([N+](=O)[O-])c1)NCCSCc1ccc(Cl)cc1Cl | – | inconclusive [inhibitor, partial curve]
3 | CN(c1ccccc1)c1ccc(/C=C(/CCC(=O)O)c2nc3ccccc3s2)cc1[N+](=O)[O-] | – | inconclusive [inhibitor, partial curve]
4 | Cc1ccc(-c2cc(NC(=O)CCl)n(-c3ccccc3)n2)cc1 | inactive: -3.86% | –
5 | CN1CCN(c2ccccc2NC(=O)c2ccc(-c3cccc(Cl)c3)o2)CC1 | – | inconclusive [inhibitor, partial curve]
6 | COC(=O)c1ccc(NC(=O)CC2C(=O)N(C)C(=S)N2Cc2ccc(S(N)(=O)=O)cc2)cc1 (stereo not given) | – | inconclusive [inhibitor, single point]
7 | COc1ccc(-c2csc(/C(C#N)=C\c3ccc(O)c([N+](=O)[O-])c3)n2)cc1OC | – | inconclusive [inhibitor, partial curve]
8 | Cc1ccc2c(c1)CCCN2C(=O)c1ccncc1 | – | inconclusive [inhibitor, single point]
9 | Cc1ccc2nc(-c3ccccn3)c(NC3CCCC3)n2c1 | – | inconclusive [inhibitor, single point]
10 | COc1ccccc1Nc1c([N+](=O)[O-])cc(C)cc1[N+](=O)[O-] | – | inconclusive [inhibitor, full curve]
11 | COc1cc(OC)c(OC)cc1CN1CCC(O)CC1 | – | inconclusive [inhibitor, partial curve]
12 | COC(=O)Cc1c(C)c2ccc(OC(=O)c3ccco3)cc2oc1=O | inactive: -1.52% | –
13 | O=C(c1cccc(S(=O)(=O)N2CCN(c3ccc(F)cc3)CC2)c1)N1CCCC(C(F)(F)F)C1 (stereo not given) | – | inconclusive [inhibitor, partial curve]
14 | O=C(CSC1=NNC(c2ccccn2)S1)Nc1cccc(Cl)c1 (stereo not given) | – | inconclusive [inhibitor, single point]
15 | Cc1cc(NC(=O)CSc2nnc(-c3ccco3)o2)no1 | – | active: 28.2 µM
16 | COC(=O)c1cnc(Nc2ccc(Cl)cc2)c([N+](=O)[O-])c1 | – | inconclusive [inhibitor, full curve, poor fit]
17 | O=C(O)C1OC(C(=O)O)C(C(=O)O)C1C(=O)O (stereo not given) | – | inconclusive [inhibitor, partial curve]
18 | CN(C)CCNC(=O)c1cc2sc3ccccc3c2s1 | inactive: 1.74% | –
19 | O=C(NCCCn1ccnc1)c1ccc(S(=O)(=O)N2CCOCC2)cc1 | inactive: 1.12% | –
20 | CC(C)(C)c1nc(CN2CCOCC2)cc(CN2CCOCC2)c1O | – | inconclusive [inhibitor, single point]
21 | COc1ccc(CCNc2ccncn2)cc1 | inactive: 32.9% | –
22 | COC(=O)c1sc2ccccc2c1N | inactive: -3.32% | –
23 | CN1CCN(c2ccc(NC(=O)c3ccc(-c4cccc([N+](=O)[O-])c4)o3)cc2)CC1 | – | inconclusive [inhibitor, single point]

Row | Structure (SMILES) | activity change, negative = inhibition | Potency
24 | O=C(Nc1ccc2c(c1)OCCO2)C(c1ccnc2ccccc12)N1CCN(c2ccc(F)cc2)CC1 (stereo not given) | – | inconclusive [inhibitor, single point]
25 | CC1(Oc2cnc(Cl)c3ccccc23)CCN(Cc2ccc(-c3ccccn3)cc2)C1 (stereo not given) | – | inconclusive [inhibitor, single point]
26 | COc1cccc(-c2nc(-c3ccc4c(c3)NC(=O)CO4)cs2)c1 | inactive: 0.784% | –
27 | COc1ccc(Br)cc1CNc1ccc(O)cc1 | – | inconclusive [inhibitor, partial curve]
28 | O=C1c2cccc3cccc(c23)C(=O)N1CCN1CCN(CC(O)COCc2ccc(Cl)cc2)CC1 (stereo not given) | – | inconclusive [inhibitor, single point]
29 | CCOc1ccc(Nc2nc(N)nc(CSC(=S)N3CCOCC3)n2)cc1 | inactive: -11.4% | –
30 | COc1ccc(OC)c(-c2c3cc(O)c(=O)cc-3oc3cc(O)c(O)cc23)c1 | – | active: 2 µM
31 | CN(Cc1nc(-c2ccccc2)no1)C(=O)c1ccco1 | – | inconclusive [inhibitor, single point]
32 | Cc1ccc(S(=O)(=O)NC2=C(N3CCN(Cc4ccccc4)CC3)C(=O)c3ccccc3C2=O)cc1 | – | inconclusive [inhibitor, full curve, poor fit]
33 | Cc1ccc2nc(N(CCCN(C)C)C(=O)c3ccc4c(c3)CCCC4)sc2c1 | – | inconclusive [inhibitor, partial curve]
34 | CC1CCCN(S(=O)(=O)c2cccc(C(=O)NCCCN3CCCC3=O)c2)C1 (stereo not given) | inactive: 0% | –
35 | Cc1nc2ncnn2c(C)c1C/C=C/c1ccccc1 | inactive: 4.62% | –
36 | CN1C(=O)[C@@H]2[C@@H]3C[C@@H]([C@H]4ON=C(c5ccc(Cl)cc5Cl)[C@@H]34)[C@@H]2C1=O | – | inconclusive [inhibitor, full curve]
37 | COc1cc(N=CC2=C(O)c3ccccc3C2=O)cc(OC)c1 | inactive: -10.9% | –
38 | C#CCN(C)CC/C=C1\c2ccccc2CSc2ccccc21 | – | inconclusive [inhibitor, partial curve]
39 | O=C1NCC2=C1C(c1ccc(Br)cc1)Nc1ccccc1N2 (stereo not given) | inactive: 12.8% | –
40 | COc1ccc(OCCSc2ncccn2)cc1 | – | inconclusive [inhibitor, single point]
41 | CCC1CCCCN1C(=O)C1CC(c2cc(Cl)c(OC)cc2OC)=NO1 (stereo not given) | – | inconclusive [inhibitor, single point]
42 | Fc1ccc(-c2nc3ccccn3c2NCc2ccc3c(c2)OCO3)cc1 | – | inconclusive [inhibitor, partial curve]
43 | Cc1ccc(O)c(N=Cc2cc(Cc3ccccc3)cc([N+](=O)[O-])c2O)c1 | – | inconclusive [inhibitor, partial curve]
44 | O=C(NCc1ccco1)c1cc2cc3ccc(Cl)cc3nc2o1 | – | inconclusive [inhibitor, partial curve]
45 | O=C(C[C@H]1C[C@H](C(=O)N2CCOCC2)[C@@]2(CCC3CCCC3)c3[nH]c4cc(-c5ccco5)ccc4c3CCN2C1=O)NCc1cccc(C(F)(F)F)c1 | – | inconclusive [inhibitor, partial curve]
